According to the supplement of paper PMC4166925:
± gives the standard deviation of the averaged measurements. Over roughly 33,000 sequences, “E-score (dimensionless, -0.5 to 0.5)” has its median near -0.049; the highest 2% begin near 0.37. This is one part of the list.

System: T1, PmTbr T-box DNA-binding domain (GST fusion)
T1 sequence: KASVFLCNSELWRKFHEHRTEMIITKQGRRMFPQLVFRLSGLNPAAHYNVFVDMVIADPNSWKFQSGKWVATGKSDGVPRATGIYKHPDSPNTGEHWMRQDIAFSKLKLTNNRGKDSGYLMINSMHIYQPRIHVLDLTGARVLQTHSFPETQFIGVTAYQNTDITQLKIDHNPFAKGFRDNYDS
Assay: PBM E-score of 8-mer (E-score (dimensionless, -0.5 to 0.5)); Tbr is Tbrain of the sea star Patiria miniata (Pm) or the sea urchin Strongylocentrotus purpuratus (Sp); higher = stronger binding preference; most listed sequences are background and not binding sites
Details: the construct has about 5 more residues each side
In short: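 Expression of GST-fused Tbr T-box DNA-binding domains, each holding the full T-box plus roughly five flanking residues, was carried out in BL21 E. coli at 20 °C, with purification by glutathione affinity chromatography. Universal Agilent arrays made double-stranded by primer extension were incubated with the protein at 200 nM in PBS (pH 7.5), then scanned and quantified. All ungapped 8-mers were scored from probe intensities, and each received an enrichment E-score from the Universal PBM Analysis Suite, averaged over duplicate arrays.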

Row | Sequence | PBM E-score of 8-mer
1 | GAACCTTA | -0.144 ± 0.042
2 | ATAGCCGA | -0.231 ± 0.038
3 | TCGTCCCA | -0.28 ± 0.0074
4 | AACGCAGT | 0.0247 ± 0.0046
5 | CTAACAGC | 0.168 ± 0.056
6 | CAGCCCTA | -0.104 ± 0.032
7 | AATATATA | -0.0392 ± 0.088
8 | ATTTGTAA | -0.0411 ± 0.12
9 | GGGTTCAC | 0.17 ± 0.039
10 | ATGCTGTA | -0.236 ± 0.032
11 | GAGTATCC | -0.174 ± 0.014
12 | CATAGACC | -0.27 ± 0.033
13 | GGGATCTA | -0.211 ± 0.079
14 | ATGATCAG | -0.232 ± 0.0052
15 | CAGTAGTA | 0.0233 ± 0.0039
16 | GAGTATCA | -0.0776 ± 0.091
17 | TCGCATCA | 0.149 ± 0.042
18 | ATGTGAAA | 0.287 ± 0.019
19 | ACCACCAA | 0.0394 ± 0.048
20 | ACAATTCT | 0.0705 ± 0.023
21 | CTCAGTGA | -0.0507 ± 0.041
22 | AAGTGCTC | 0.0187 ± 0.018

Row | Sequence | PBM E-score of 8-mer
23 | GCTGTAGA | -0.25 ± 0.0054
24 | ATCCGCAT | -0.237 ± 0.017
25 | CTAGAACC | -0.14 ± 0.074
26 | AAACTTGT | 0.163 ± 0.073
27 | CGATCTCA | 0.0841 ± 0.016
28 | GGGCCGAA | -0.122 ± 0.037
29 | CCCCGAGG | -0.148 ± 0.056
30 | CGGTTAGA | -0.182 ± 0.026
31 | ACATTGCA | 0.0709 ± 0.034
32 | ACGTTCTG | -0.0735 ± 0.011
33 | AACGCCCG | 0.0305 ± 0.028
34 | CATGAAGC | -0.064 ± 0.045
35 | GATGGTCC | -0.346 ± 0.014
36 | ACGCAATA | -0.0241 ± 0.054
37 | TATGTTGA | -0.0692 ± 0.1
38 | CCAGGACA | 0.0761 ± 0.0049
39 | GACGTCCA | -0.0383 ± 0.0085
40 | AGTCAAGG | -0.0922 ± 0.0097
41 | ACACTTAC | 0.412 ± 0.0079
42 | GCTCGAAC | -0.198 ± 0.0032
43 | GCGAGGAA | 0.21 ± 0.0086
44 | GGCTCCAC | -0.15 ± 0.038

Row | Sequence | PBM E-score of 8-mer
45 | AACAGAGG | -0.178 ± 0.015
46 | ACTCACAC | 0.4612 ± 0.00083
47 | GTCCAAAC | -0.0846 ± 0.017
48 | AAATAGAC | -0.1746 ± 0.0012
49 | GTACCATA | -0.246 ± 0.043
50 | AGAGGTTG | 0.0353 ± 0.068
51 | CGTACGTC | -0.111 ± 0.049
52 | ATAAAGCG | 0.139 ± 0.031
53 | AGTTCGCG | 0.221 ± 0.038
54 | CCGTCCGC | 0.00107 ± 0.02
55 | GATGAGAA | -0.00456 ± 0.011
56 | AAGCAACA | 0.079 ± 0.017
57 | CAGGGTGC | 0.271 ± 0.036
58 | GGCCCCGA | -0.341 ± 0.029
59 | GAACCAGA | -0.139 ± 0.041
60 | AGATAGAG | -0.00491 ± 0.06
61 | CAAGTTCC | 0.0103 ± 0.1
62 | ACTGTAAC | 0.123 ± 0.019
63 | ACGCATCA | 0.083 ± 0.099
64 | CAGTTGAA | 0.0143 ± 0.069
65 | AAGTAGCG | 0.149 ± 0.063
66 | CGGTCAAG | -0.263 ± 0.039

Row | Sequence | PBM E-score of 8-mer
67 | ATGGCACC | 0.387 ± 0.011
68 | AGTTTTAC | -0.00577 ± 0.17
69 | CTTGACCA | -0.0573 ± 0.026
70 | CGCGTTGC | 0.211 ± 0.017
71 | CGGGTGCC | 0.247 ± 0.024
72 | GGGGGTCA | -0.0111 ± 0.17
73 | TGTTTGAA | 0.112 ± 0.0038
74 | AGAATTCG | 0.0158 ± 0.13
75 | ACGTGGTG | 0.212 ± 0.016
76 | CGGCTAAA | 0.0452 ± 0.049
77 | GACGCGTC | 0.324 ± 0.023
78 | AACATGCG | 0.175 ± 0.032
79 | CCTAACGA | -0.0186 ± 0.072
80 | AAAAAGAT | -0.206 ± 0.07
81 | AGGAAGTA | -0.125 ± 0.066
82 | CTCCCCGC | -0.0446 ± 0.064
83 | AGGATGCG | 0.047 ± 0.057
84 | GTTCCGTA | -0.202 ± 0.014
85 | ACTAGAAG | -0.0175 ± 0.013
86 | GTATACCA | 0.0332 ± 0.012
